Where “and” joins values, the source holds several entries; their conditions need not be identical. Equal values may be shown once. The campaign covered roughly 350,000 compounds. About 31,000 (8.9%) were called active. Inconclusive means that the source gave no clear call. Such entries were picked first, then a sample of the others. Calls follow the shape of the dose curve; as a rule, active = well fitted inhibition curve with a large enough effect; inconclusive = small, poorly fitted or top-dose-only effect; inactive = no such curve, though single readings can be large or run the other way. Potencies beside an inconclusive call are fits to weak or partial responses and may not hold up.
Biological target: Histone-lysine N-methyltransferase EHMT2 (Homo sapiens) (UniProt Q96KQ7)
UniProt Q96KQ7, sequence (Q96KQ7 whole entry, looked up): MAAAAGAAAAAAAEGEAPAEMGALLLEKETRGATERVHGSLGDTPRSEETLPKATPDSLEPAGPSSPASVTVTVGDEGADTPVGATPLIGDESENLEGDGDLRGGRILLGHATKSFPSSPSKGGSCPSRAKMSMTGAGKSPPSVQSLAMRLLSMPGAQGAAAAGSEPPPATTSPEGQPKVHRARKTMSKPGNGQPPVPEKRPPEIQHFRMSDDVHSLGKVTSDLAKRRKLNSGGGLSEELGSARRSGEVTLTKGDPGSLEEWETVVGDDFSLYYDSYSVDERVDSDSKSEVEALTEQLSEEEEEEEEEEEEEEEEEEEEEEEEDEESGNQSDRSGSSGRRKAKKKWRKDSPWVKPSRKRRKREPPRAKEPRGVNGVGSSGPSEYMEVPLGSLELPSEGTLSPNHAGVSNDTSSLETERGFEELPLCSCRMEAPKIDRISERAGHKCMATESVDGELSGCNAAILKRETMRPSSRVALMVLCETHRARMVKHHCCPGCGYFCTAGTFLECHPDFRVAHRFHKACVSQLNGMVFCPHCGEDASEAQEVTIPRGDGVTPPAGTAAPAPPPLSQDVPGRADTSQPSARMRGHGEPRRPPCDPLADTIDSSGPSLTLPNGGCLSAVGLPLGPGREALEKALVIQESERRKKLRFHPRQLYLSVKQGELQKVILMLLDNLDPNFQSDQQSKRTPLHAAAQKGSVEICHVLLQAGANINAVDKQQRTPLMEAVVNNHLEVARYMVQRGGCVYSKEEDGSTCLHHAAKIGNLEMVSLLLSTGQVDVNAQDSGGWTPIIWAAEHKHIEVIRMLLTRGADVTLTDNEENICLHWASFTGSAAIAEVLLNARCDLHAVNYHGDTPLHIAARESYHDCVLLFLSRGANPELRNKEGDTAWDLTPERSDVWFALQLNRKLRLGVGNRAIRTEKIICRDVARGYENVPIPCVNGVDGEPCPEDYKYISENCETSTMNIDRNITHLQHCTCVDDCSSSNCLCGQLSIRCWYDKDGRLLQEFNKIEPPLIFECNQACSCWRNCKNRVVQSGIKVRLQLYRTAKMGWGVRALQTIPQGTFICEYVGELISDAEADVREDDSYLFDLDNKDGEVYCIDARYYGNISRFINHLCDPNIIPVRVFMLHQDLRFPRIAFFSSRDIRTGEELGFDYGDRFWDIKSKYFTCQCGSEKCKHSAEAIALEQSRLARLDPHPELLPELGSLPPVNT
Test: qHTS Assay for Inhibitors of Histone Lysine Methyltransferase G9a; also: nearly all actives have a fitted effect of over 75% in size
Details: G9a H3K9 monomethylation, AlphaScreen, 2 h; activity, negative = inhibition: at 59 µM (top of the series) unless noted
How it was run: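 Quantitative HTS format: methyltransferase activity on a biotin-tagged H3K9 peptide is measured by AlphaScreen, using a rabbit anti-monomethyl-H3K9 antibody with streptavidin donor and anti-IgG acceptor beads. Final levels are 20 nM enzyme, 500 nM peptide, 20 uM SAM; 2 h RT.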
% is scaled to controls: 0 for no effect and ±100 for the full control effect; potency is read from the fitted curve at half-maximal effect; tags tell the direction and shape of the fitted curve.

**Q.** `CC(C)C[C@H](NC(=O)C1CC(=O)N(c2ccc3c(c2)OCO3)C1)C(=O)NC1CCCC1` (stereo partly specified) was tested. Which Potency did it give?
**A.** inconclusive: 79.4 µM [inhibitor, single point]

**Q.** Which Potency does the source give for `Cc1cccnc1NCC(O)COc1ccccc1` (stereo unspecified) here?
**A.** inconclusive: 31.6 µM [inhibitor, partial curve, poor fit]

**Q.** How did the Potency turn out when `Fc1ccc(-c2nc(Nc3ccc(F)c(Cl)c3)nc3c2COc2ccccc2-3)cc1` was run?
**A.** inconclusive: 7.08 µM [inhibitor, partial curve]

**Q.** Which Potency does the source give for `Cc1ccc(C(=O)Nc2sc3c(c2C(=O)O)CCCC3)o1` here?
**A.** inconclusive: 35.5 µM [inhibitor, partial curve, poor fit]

**Q.** For `Cc1ccccc1-c1cc(C(=O)O)nn1CC1CC(c2cccc([N+](=O)[O-])c2)=NO1` (stereo unspecified), which activity, negative = inhibition is on record?
**A.** inactive: 2.38% [at 2.33 µM]

**Q.** With `COCCN(C(=O)COC(=O)c1cc2ccccc2cc1OC)c1c(N)n(Cc2ccccc2)c(=O)[nH]c1=O` as the molecule, how does the Potency read?
**A.** inconclusive: 89.1 µM [inhibitor, partial curve, poor fit]

**Q.** Which Potency does the source give for `N#Cc1c(NC(=O)c2cccc(S(=O)(=O)Nc3ccc(C(=O)O)cc3)c2)sc2c1CCCC2` here?
**A.** active: 50.1 µM

**Q.** Which Potency does the source give for `CN(C)S(=O)(=O)N(CC(=O)N(Cc1ccccc1)Cc1ccccc1)c1ccccc1` here?
**A.** inactive

**Q.** With `O=C(CSc1nnc(-c2cccnc2)o1)Nc1nccs1` as the molecule, how does the Potency read?
**A.** inactive

**Q.** `COc1ccc(-n2c3c(cc(C(=O)N4CCCCC4)c2=O)C(=O)CC(C)(C)C3)cc1` was tested. Which Potency did it give?
**A.** inconclusive: 56.2 µM [inhibitor, partial curve, poor fit]

**Q.** For `O=C(Nc1ccc(Cl)cc1Cl)c1cc(S(=O)(=O)N2CCN(c3ccccc3F)CC2)ccc1F`, which Potency is on record?
**A.** inactive

**Q.** Which Potency does the source give for `O=C(CN1CCc2ccccc2C1)NC1CCCC1` here?
**A.** inconclusive: 50.1 µM [inhibitor, partial curve]

**Q.** For `Cc1cc([N+](=O)[O-])cc(C)c1OCC(=O)N/N=C/c1ccc(OC(=O)c2ccccc2)cc1`, which Potency is on record?
**A.** inconclusive: 28.2 µM [inhibitor, single point]

**Q.** `COc1cccc(/C=C/C(=O)N(C)CC(=O)Nc2ccc(Cl)c(C(F)(F)F)c2)c1` was tested. Which Potency did it give?
**A.** inconclusive: 89.1 µM [inhibitor, single point]

**Q.** Which activity, negative = inhibition does the source give for `Cc1ccc(NC(=O)Nc2cccnc2)cc1NC(=O)Nc1cccnc1` here?
**A.** inactive: -12.8% [at 0.501 µM]

**Q.** For `Cc1ccc(-c2cc3ncc(C(=O)c4cc([N+](=O)[O-])ccc4O)cn3n2)cc1`, which Potency is on record?
**A.** inactive

**Q.** For `Cc1ccc(CC2CC(=O)N(Cc3ccco3)C2=O)cc1` (stereo unspecified), which Potency is on record?
**A.** active: 39.8 µM

**Q.** Which Potency does the source give for `Nc1ccccc1Nc1cc(-c2cccc(Cl)c2)nn1-c1ccccc1` here?
**A.** active: 28.2 µM

**Q.** For `O=C(c1ccccc1)N1CCCCC(Cl)C1=O` (stereo unspecified), which Potency is on record?
**A.** inconclusive: 79.4 µM [inhibitor, partial curve, poor fit]

**Q.** Which activity, negative = inhibition does the source give for `O=C(O)c1ccc(COc2c(F)c(F)cc(F)c2F)o1` here?
**A.** inconclusive: -75.6% [inhibitor]

**Q.** How did the Potency turn out when `COc1ccc(NC(=O)CN(C)C(=O)CCCN2C(=O)c3cccc4cccc(c34)C2=O)cc1` was run?
**A.** inconclusive: 89.1 µM [inhibitor, single point]

**Q.** Which Potency does the source give for `CCCCN(C)CCNC(=O)c1cc(-c2cccnc2)nc2ccc(S(=O)(=O)N3CCC(C)CC3)cc12` here?
**A.** active: 50.1 µM

**Q.** With `CCN(CC)CCn1c2c(c(SCC(=O)NCc3ccccc3)nc1=O)CCC2` as the molecule, how does the Potency read?
**A.** inactive

**Q.** For `COCCNC(=O)CN1C(=O)NC2(CCCCCC2)C1=O`, which Potency is on record?
**A.** inactive

**Q.** `O=C(Nc1ccc(Cl)cc1)C1CCN(c2nc3ccccc3n3cccc23)CC1` was tested. Which Potency did it give?
**A.** inactive

**Q.** `COc1cccc(N2CCN(C(=O)c3ccc(CSc4nc5ccncc5[nH]4)cc3)CC2)c1` was tested. Which Potency did it give?
**A.** active: 12.6 µM

**Q.** How did the Potency turn out when `O=C1CSC(c2cccnc2)N1Cc1cccnc1` (stereo unspecified) was run?
**A.** inconclusive: 79.4 µM [inhibitor, single point]

**Q.** Which Potency does the source give for `O=C(Cc1ccccc1[N+](=O)[O-])Nc1ccc2c(c1)OCO2` here?
**A.** inconclusive: 70.8 µM [inhibitor, single point]

**Q.** How did the Potency turn out when `CCc1ccc(CN(C)C(=O)C2=CC=CN3CCS(=O)(=O)N=C23)cc1` was run?
**A.** inconclusive: 39.8 µM [inhibitor, partial curve, poor fit]

**Q.** Which Potency does the source give for `Cc1ccccc1NP(=O)(c1ccccc1)c1nc2ccccc2s1` (stereo unspecified) here?
**A.** inconclusive: 35.5 µM [inhibitor, partial curve]

**Q.** With `Cc1c(OCC(=O)NC2CC(C)(C)NC(C)(C)C2)ccc2c1oc(=O)c1ccccc12` as the molecule, how does the activity, negative = inhibition read?
**A.** inconclusive: -97% [inhibitor]

**Q.** For `CC1=C(C)C(=O)C(CCCCC#CCCCC#CCO)=C(C)C1=O`, which Potency is on record?
**A.** active: 17.8 µM and active: 31.6 µM and active: 18.9 µM

**Q.** How did the Potency turn out when `O=C(O)c1cc(-c2ccccc2)n(-c2ccccc2C(=O)O)n1` was run?
**A.** inconclusive: 39.8 µM [inhibitor, partial curve, poor fit]

**Q.** `CCn1c(SCc2ccccc2)nc2cc(S(N)(=O)=O)ccc21` was tested. Which Potency did it give?
**A.** inactive

**Q.** `CC1(C)Cc2c(sc3c2C(=O)N(c2ccccc2)C2=NCCCN23)CO1` was tested. Which Potency did it give?
**A.** inconclusive: 89.1 µM [inhibitor, single point]

**Q.** For `O=C(Oc1ccc(-c2cn3c(n2)SCC3)cc1)c1ccccc1`, which Potency is on record?
**A.** inconclusive: 3.98 µM [inhibitor, partial curve]

**Q.** For `CSCCC(NC(=O)COc1ccccc1)C(=O)OCCOc1ccc(C)cc1` (stereo unspecified), which Potency is on record?
**A.** inconclusive: 3.55 µM [inhibitor, partial curve, poor fit]

**Q.** How did the Potency turn out when `Cc1nc(-c2ccc([N+](=O)[O-])cc2)c(-c2ccccc2)o1` was run?
**A.** active: 15.8 µM

**Q.** With `Cc1c(CCC(=O)O)c(=O)oc2cc3occ(-c4ccc(Br)cc4)c3cc12` as the molecule, how does the Potency read?
**A.** inconclusive: 89.1 µM [inhibitor, single point]

**Q.** Which Potency does the source give for `CN(CCc1ccccc1)C(=O)CCc1nnc(Cc2ccc3c(c2)OCO3)o1` here?
**A.** inconclusive: 79.4 µM [inhibitor, single point]

**Q.** Which Potency does the source give for `Cc1cccc(-c2nc3c(C#N)c[nH]n3c2NC2CCCCC2)c1` here?
**A.** inconclusive: 39.8 µM [inhibitor, partial curve, poor fit]

**Q.** How did the Potency turn out when `O=C(Nc1nc2ccc(F)cc2s1)C1CCN(S(=O)(=O)c2cc([N+](=O)[O-])ccc2Cl)CC1` was run?
**A.** active: 22.4 µM

**Q.** With `COc1cc(OC)c(C(=O)Nc2ccc(S(=O)(=O)N3CCCCC3)cc2)cc1OC` as the molecule, how does the activity, negative = inhibition read?
**A.** inactive: 1.37% [at 0.501 µM]

**Q.** Which Potency does the source give for `Cc1ccc(-n2cccn2)c(CN2CCCC(C(=O)c3sccc3C)C2)c1` (stereo unspecified) here?
**A.** inconclusive: 89.1 µM [inhibitor, single point]

**Q.** For `COc1ccccc1CNC(=O)CSC1=NCCS1`, which Potency is on record?
**A.** inconclusive: 50.1 µM [inhibitor, partial curve, poor fit]

**Q.** For `Cc1cc(=O)oc2c3c(cc(OCC(=O)N[C@@H](Cc4ccccc4)C(=O)O)c12)OC(C)(C)CC3`, which Potency is on record?
**A.** inconclusive: 89.1 µM [inhibitor, single point]

**Q.** With `CN(C)c1ccc(C(CNS(=O)(=O)c2ccc(Cl)cc2)N2CCCC2)cc1` (stereo unspecified) as the molecule, how does the Potency read?
**A.** inconclusive: 22.4 µM [inhibitor, partial curve, poor fit]

**Q.** `CC(C)CN(C(=O)CSc1nc2ccccc2o1)c1c(N)n(Cc2ccccc2)c(=O)[nH]c1=O` was tested. Which Potency did it give?
**A.** inconclusive: 6.31 µM [inhibitor, single point]

**Q.** With `CC(=O)c1ccc(N2CCN(C(=O)Cn3cnc(S(=O)(=O)N4CCCCC4)c3)CC2)cc1` as the molecule, how does the Potency read?
**A.** inactive

**Q.** Which Potency does the source give for `Cc1ccc(C2(C)NC(=O)N(CC(=O)Nc3ccc(Cl)c(S(=O)(=O)N4CCCCC4)c3)C2=O)cc1` (stereo unspecified) here?
**A.** active: 39.8 µM

**Q.** Which Potency does the source give for `COc1ccc2c(COC(=O)[C@@H]3CCCN3S(=O)(=O)c3ccc(Cl)cc3)cc(=O)oc2c1` here?
**A.** inconclusive: 89.1 µM [inhibitor, partial curve, poor fit]

**Q.** Which Potency does the source give for `O=C1CCC(=O)N1CC1CC2CCC1C2` (stereo unspecified) here?
**A.** inconclusive: 89.1 µM [inhibitor, single point]

**Q.** Which Potency does the source give for `COc1ccc(CN2CCNC(=O)C2CC(=O)NCC2CCOCC2)c(C)c1C` (stereo unspecified) here?
**A.** inactive

**Q.** How did the Potency turn out when `COc1ccc(CNc2nc3c(c(=O)n(Cc4ccc(Cl)cc4)c(=O)n3C)n2C)cc1` was run?
**A.** inconclusive: 22.4 µM [inhibitor, single point]

**Q.** With `CC(N)(Cc1ccc(O)cc1)C(=O)O` (stereo unspecified) as the molecule, how does the activity, negative = inhibition read?
**A.** inactive: -23.5% [at 12.7 µM]

**Q.** `CCOc1ccc(C(=S)NC2CCCCC2)cc1OC` was tested. Which Potency did it give?
**A.** active: 12.6 µM

**Q.** With `O=C(CN1CCN(c2ncccn2)CC1)NCc1ccccc1` as the molecule, how does the Potency read?
**A.** active: 56.2 µM

**Q.** `CC1=C/C(=C\c2ccc(Br)o2)C(=O)O1` was tested. Which Potency did it give?
**A.** inconclusive: 28.2 µM [inhibitor, single point]

**Q.** For `CN(N=Nc1ccc([N+](=O)[O-])cc1)c1ccccc1`, which Potency is on record?
**A.** inconclusive: 7.94 µM [inhibitor, full curve, poor fit]

**Q.** `COc1ccc(CN(C)CC(=O)Nc2sc3c(c2C#N)CCC3)cc1OC` was tested. Which Potency did it give?
**A.** inconclusive: 50.1 µM [inhibitor, partial curve, poor fit]

**Q.** With `Nn1cc(-c2ccccc2)nc1SCC(=O)Nc1cccc(S(N)(=O)=O)c1` as the molecule, how does the activity, negative = inhibition read?
**A.** inconclusive: -75.5% [inhibitor]

**Q.** Which activity, negative = inhibition does the source give for `COc1cc(/C=C2\C(=O)ON=C2c2ccccc2)cc(OC)c1OC` here?
**A.** inconclusive: -60.7% [inhibitor]

**Q.** With `C#CCOCCOCCOCCNc1nc(N2CCN(C(=O)[C@H](CCC(=O)O)n3cc(C(N)CC(C)C)nn3)CC2)nc(N2CCN(C(=O)[C@H](CCC(=O)O)n3cc(C(N)CC(C)C)nn3)CC2)n1` (stereo partly specified) as the molecule, how does the activity, negative = inhibition read?
**A.** inactive: 9.97% [at 12.7 µM]

**Q.** With `c1ccc(CCn2nnnc2CN2CCCc3ccccc32)cc1` as the molecule, how does the Potency read?
**A.** inconclusive: 70.8 µM [inhibitor, single point]

**Q.** Which Potency does the source give for `O=C(CNC(=O)c1cccc(-n2cnnn2)c1)Nc1ccc(F)c(F)c1` here?
**A.** inconclusive: 28.2 µM [inhibitor, single point]

**Q.** `Cc1ccc(-n2c(CCC(=O)O)ccc2-c2cccs2)cc1` was tested. Which activity, negative = inhibition did it give?
**A.** inconclusive: -118% [inhibitor]

Reference: PubChem BioAssay AID504332 (National Center for Advancing Translational Sciences (NCATS), 2011)
